Data reported in the supplement of paper PMC5919970.
Counter-ions that a name gives are not always drawn. Over roughly 2,000 compounds, “fractional viability relative to vehicle” has its median near 0.91; the lowest 2% begin near 0.045. The list shows a part of the results.

Tested on: TYKNU
Assay: fractional viability relative to vehicle; TYKNU is a high-grade serous ovarian cancer line; higher = less growth inhibition
Details: 72 h
Outline: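 TYKNU control cells or lentiCRISPRv2 knockout derivatives were seeded at 500 cells per well into drug-stamped 384-well plates holding a ~2100-compound library at 2 or 10 μM, in duplicate. Cells were grown at 37 °C in 5% CO2 in RPMI 1640 with 10% FBS, and drug treatment lasted 72 h. Viability was read by Cell Titer Glo luminescence. Duplicate treatment wells were averaged and normalised to duplicate control wells from the same plate position.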

[1] = 2uM, genotype: DNM1L knockout (sgDNM1L #1)
[2] = 2uM, genotype: sgCTRLA1 (non-targeting control)
[3] = 10uM, genotype: DNM1L knockout (sgDNM1L #1)
[4] = 10uM, genotype: sgCTRLA1 (non-targeting control)

| SMILES | fractional viability [1] | fractional viability [2] | fractional viability [3] | fractional viability [4] |
| --- | --- | --- | --- | --- |
| CC(=O)OCC(=O)[C@@]1(O)[C@H](C)C[C@H]2[C@@H]3CCC4=CC(=O)C=C[C@]4(C)[C@@]3(F)[C@@H](O)C[C@@]21C [Dexamethasone Acetate] | 1.21 | 1.18 | 1.05 | 1.14 |
| COc1ccc(C(=O)CC(=O)c2ccc(C(C)(C)C)cc2)cc1 [Avobenzone] | 0.959 | 1.21 | 0.773 | 0.925 |
| Nc1nc2c(ncn2COCCO)c(=O)[nH]1 [Aciclovir] | 1.15 | 1.06 | 0.937 | 0.984 |
| CC(C)NCC(O)c1ccc(O)c(O)c1 (stereo not given) [Isoprenaline HCl] | 0.914 | 1.1 | 0.836 | 1.1 |
| CS(=O)(=O)N1CCN(Cc2cc3nc(-c4cccc5[nH]ncc45)nc(N4CCOCC4)c3s2)CC1 | 0.627 | 0.588 | 0.272 | 0.249 |
| COc1ccc2[nH]c([S@@+]([O-])Cc3ncc(C)c(OC)c3C)nc2c1 [Esomeprazole Magnesium] | 1.16 | 1.21 | 0.985 | 1.17 |
| COc1ccc2[nH]c([S@@+]([O-])Cc3ncc(C)c(OC)c3C)nc2c1 [Esomeprazole Sodium] | 1.26 | 1.19 | 1.31 | 1.18 |
| Cc1cc(N2CCOCC2)cc2[nH]c(-c3c(NC[C@@H](O)c4cccc(Cl)c4)cc[nH]c3=O)nc12 | 0.488 | 0.845 | 0.35 | 0.472 |
| COc1cc(F)c(F)c(Nc2ccc(I)cc2F)c1NS(=O)(=O)C1(C[C@H](O)CO)CC1 [Refametinib (RDEA119, Bay 86-9766)] | 0.305 | 0.298 | 0.213 | 0.224 |
| C#C[C@]1(O)CC[C@H]2[C@@H]3CCc4cc(O)ccc4[C@H]3CC[C@@]21C [Ethinyl Estradiol] | 0.874 | 1.1 | 0.371 | 0.475 |
| CC#CC(=O)Nc1ccc2ncnc(Nc3cccc(Br)c3)c2c1 | 0.23 | 0.186 | 0.209 | 0.168 |
| O=S(=O)(c1ccccc1)N(CC(F)(F)F)c1ccc(C(O)(C(F)(F)F)C(F)(F)F)cc1 | 0.68 | 0.865 | 0.552 | 0.85 |
| O=C(O)c1ccc(N2C(=O)/C(=C\c3ccc(-c4ccc([N+](=O)[O-])cc4)o3)C=C2c2ccccc2)cc1 | 0.851 | 0.873 | 0.899 | 0.776 |
| CCOC(=O)C1=C(C)NC(C)=C(C(=O)OCC)C1c1ccccc1/C=C/C(=O)OC(C)(C)C [Lacidipine] | 0.904 | 1.1 | 0.624 | 0.858 |
| CCOc1cc(CC(=O)N[C@@H](CC(C)C)c2ccccc2N2CCCCC2)ccc1C(=O)O [Repaglinide] | 1.03 | 1.12 | 0.993 | 1.13 |
| O=C(O)C(Cc1c[nH]c2ccccc12)N1C(=O)c2ccccc2C1=O (stereo not given) | 1.1 | 1.16 | 0.798 | 1.14 |
| CCOC(=O)c1ncn2c1CN(C)C(=O)c1cc(F)ccc1-2 [Flumazenil] | 0.917 | 1.15 | 0.901 | 1.04 |
| CNC(=O)c1ccccc1Nc1nc(Nc2ccc(N3CCOCC3)cc2OC)ncc1Cl | 0.85 | 0.837 | 0.292 | 0.206 |
| CC1=C(C(=O)Nc2cc3cn[nH]c3cc2F)C(c2ccc(C(F)(F)F)cc2)CC(=O)N1 (stereo not given) | 1.01 | 1.16 | 0.848 | 1.27 |
| Cc1cc(C)c2c(c1)[C@@H](N(Cc1cc(C(F)(F)F)cc(C(F)(F)F)c1)c1nnn(C)n1)CCCN2C[C@H]1CC[C@H](C(=O)O)CC1 | 0.887 | 1.03 | 0.627 | 0.858 |
| CCCCN(Cc1ccc(C(=O)NO)cc1)C(=O)Nc1ccccc1 [Nexturastat A] | 0.754 | 0.703 | 0.438 | 0.484 |
| COC(=O)N[C@H](C(=O)N1CCC[C@H]1c1ncc(-c2ccc(-c3ccc(-c4cnc([C@@H]5CCCN5C(=O)[C@@H](NC(=O)OC)C(C)C)[nH]4)cc3)cc2)[nH]1)C(C)C | 1.04 | 1 | 0.511 | 0.654 |
| CC(C(=O)O)c1cccc(C(=O)c2ccccc2)c1 (stereo not given) [Ketoprofen] | 0.869 | 1.09 | 0.953 | 0.982 |
| c1cc(-c2cnn3cc(-c4ccc(N5CCNCC5)cc4)cnc23)c2cccnc2c1 | 0.0431 | 0.069 | 0.0409 | 0.021 |
| NCCCC[C@@H]1NC(=O)[C@@H](Cc2ccccc2)NC(=O)[C@H](CC(=O)O)NC(=O)CNC(=O)[C@H](CCCN=C(N)N)NC1=O [Cyclo (-RGDfK)] | 0.726 | 0.923 | 0.701 | 0.724 |
| COc1cc(C(C)=O)ccc1OCCCN1CCC(c2noc3cc(F)ccc23)CC1 [Iloperidone] | 1.04 | 1.13 | 0.758 | 1.05 |
| CCCC1O[C@@H]2C[C@H]3[C@@H]4CCC5=CC(=O)C=C[C@]5(C)[C@H]4[C@@H](O)C[C@]3(C)[C@]2(C(=O)CO)O1 (stereo not given in full) [Budesonide] | 1.14 | 1.14 | 1.01 | 1.17 |
| CNC(=O)[C@@H](c1ccccc1)N1CCc2cc(OC)c(OC)cc2[C@@H]1CCc1ccc(C(F)(F)F)cc1 [Almorexant HCl] | 1.09 | 1.12 | 0.647 | 1.01 |

| SMILES | fractional viability [1] | fractional viability [2] | fractional viability [3] | fractional viability [4] |
| --- | --- | --- | --- | --- |
| COc1ccc(/C=C\c2cc(OC)c(OC)c(OC)c2)cc1O [Combretastatin A4] | 0.11 | 0.122 | 0.111 | 0.073 |
| C[C@H](Cc1cc2c(c(C(N)=O)c1)N(CCCO)CC2)NCCOc1ccccc1OCC(F)(F)F [Silodosin] | 0.929 | 1.18 | 0.899 | 0.934 |
| CN(C)CCOc1ccc(-c2nc(-c3ccncc3)c(-c3ccc4c(c3)CC/C4=N\O)[nH]2)cc1 | 0.772 | 0.95 | 0.0217 | 0.0137 |
| Cc1cc(Cl)ccc1OCCCC(=O)NO [Droxinostat] | 1.08 | 1.13 | 0.723 | 1.01 |
| O=C(NCCN1CCOCC1)c1ccc(Cl)cc1 | 1.05 | 1.07 | 0.787 | 1.1 |
| Cc1ccc(-n2sc(=O)n(Cc3ccc(F)cc3)c2=O)cc1 | 0.995 | 1.11 | 0.469 | 0.618 |
| C/C(=C\C(=O)Nc1ccccc1C(=O)O)c1ccc2ccccc2c1 | 1.03 | 1.06 | 1 | 1.04 |
| O=C(c1ccc(/C=C/c2n[nH]c3ccccc23)cc1)N1CCNCC1 | 0.869 | 0.903 | 0.737 | 0.5 |
| CS(=O)(=O)c1ccc(-c2cnc(N)c(C(=O)Nc3ccccc3)n2)cc1 | 0.677 | 0.789 | 0.333 | 0.272 |
| COc1c(C)c2c(c(O)c1C/C=C(\C)CCC(=O)O)C(=O)OC2 [Mycophenolic acid] | 0.407 | 0.461 | 0.258 | 0.232 |
| O=C(Oc1ccccc1C(=O)O)c1ccccc1O [Sasapyrine] | 0.879 | 0.984 | 0.773 | 1.21 |
| C[C@H]1O[C@@H](n2cc(F)c(=O)[nH]c2=O)[C@H](O)[C@@H]1O [Doxifluridine] | 1.11 | 1.13 | 0.893 | 1.06 |
| CC(C)(C)c1nc(-c2cccc(NS(=O)(=O)c3c(F)cccc3F)c2F)c(-c2ccnc(N)n2)s1 | 0.452 | 0.476 | 0.404 | 0.565 |
| CC1(C)CC[C@]2(C(=O)O)CC[C@]3(C)C(=CC[C@@H]4[C@@]5(C)CC[C@H](O)C(C)(C)[C@@H]5CC[C@]43C)[C@@H]2C1 [Oleanolic Acid] | 0.911 | 1.06 | 0.804 | 0.985 |
| O=C(O)CCCCC(CCSCc1ccccc1)SCc1ccccc1 (stereo not given) | 1.07 | 1.19 | 0.942 | 1.07 |
| O=c1c(-c2ccc(O)cc2)coc2cc(O)ccc12 [Daidzein] | 0.874 | 1.07 | 0.676 | 0.929 |
| COc1cccc(Nc2c(C(N)=O)cnc3c(C)cc(S(=O)(=O)c4cccc(C(=O)N(C)C)c4)cc23)c1 | 0.711 | 0.988 | 0.585 | 0.958 |
| Nc1c(CC(=O)O)cccc1C(=O)c1ccc(Br)cc1 [Bromfenac Sodium] | 0.888 | 1.1 | 0.801 | 1.05 |
| CC1(C)O[C@@H]2C[C@H]3[C@@H]4CCC5=CC(=O)CC[C@]5(C)[C@@]4(F)[C@@H](O)C[C@]3(C)[C@]2(C(=O)CCl)O1 [Halcinonide] | 1.29 | 1.16 | 0.807 | 1.04 |
| C[C@]12C=CC(=O)C=C1CC[C@H]1[C@@H]3C[C@@H](O)[C@](O)(C(=O)CO)[C@@]3(C)C[C@H](O)[C@@]12F [Triamcinolone] | 1.2 | 1.09 | 1.16 | 1.07 |
| N#Cc1ccc(COC[C@H]2O[C@@H](n3c(NCc4ccc(Cl)c(Cl)c4)nc4c(N)ncnc43)[C@H](O)[C@@H]2O)cc1 | 0.566 | 0.64 | 0.194 | 0.109 |
| CCN(CC)C(=O)/C(C#N)=C/c1cc(O)c(O)c([N+](=O)[O-])c1 [Entacapone] | 1.07 | 1.06 | 1.25 | 1.25 |
| C[C@@H]1O[C@@H](OC[C@H]2O[C@@H](Oc3c(-c4ccc(OCCO)c(OCCO)c4)oc4cc(OCCO)cc(O)c4c3=O)[C@H](O)[C@@H](O)[C@@H]2O)[C@H](O)[C@H](O)[C@H]1O [Troxerutin] | 1.01 | 1.05 | 1.11 | 1.12 |
| Cn1nnc(-c2ccc3c(c2)[nH]c2nc(Cc4ccccc4)nc(NC4CCC(N)CC4)c23)n1 (stereo not given) | 0.533 | 0.384 | 0.908 | 0.842 |
| C[C@@H](O)[C@H]1C(=O)N2C(C(=O)O)=C(S[C@@H]3CN[C@H](C(=O)N(C)C)C3)[C@H](C)[C@H]12 [Meropenem] | 1.05 | 1.18 | 0.984 | 1.03 |
| CC(=O)O[C@H]1C[C@@H]2CC[C@@H]3[C@H](CC[C@@]4(C)[C@H]3C[C@H]([N+]3(C)CCCCC3)[C@@H]4OC(C)=O)[C@@]2(C)C[C@@H]1N1CCCCC1 [Vecuronium Bromide] | 0.904 | 1.14 | 1.06 | 1.22 |
| CN(C)Cc1cccc(N=C(c2ccccc2)c2c(O)[nH]c3cc(C(=O)N(C)C)ccc23)c1 | 1.01 | 0.843 | 0.588 | 0.574 |
